Assay results reported in paper PMC10716038, “Talin and kindlin use integrin tail allostery and direct binding to activate integrins” (Nature Structural & Molecular Biology, 2023).
Certain results were filed several times, with different values. They are shown here; other results are not. An entry can have further records. Values that stand side by side seem to repeat one measurement; a mean can stand among them.

Key:
[1] = target: β1-TM–CT Y795A (KIND2-binding impaired) in nanodiscs (UniProt P09055); assay: flow cytometry-based reporter-displacement assay (FC-RDA) on beads; biotinylated TM–CT in 10% PIP3/90% DMPC nanodiscs on streptavidin beads; reporter 50 nM 647–KIND2, unlabelled competitor titrated; 20 mM Tris pH 7.5, 200 mM NaCl, room temperature; IC50 of individual experiments; charged lipids contribute to the binding
[2] = target: β1-TM–CT Y795A (KIND2-binding impaired) in nanodiscs (UniProt P09055); assay: flow cytometry-based reporter-displacement assay (FC-RDA) on beads; biotinylated TM–CT in 10% PIP3/90% DMPC nanodiscs on streptavidin beads; reporter 100 nM 565–THD1, unlabelled competitor titrated; 20 mM Tris pH 7.5, 200 mM NaCl, room temperature; IC50 of individual experiments; charged lipids contribute to the binding
[3] = target: β1-TM–CT Y795A (KIND2-binding impaired) in nanodiscs (UniProt P09055); assay: flow cytometry-based reporter-displacement assay (FC-RDA) on beads; biotinylated TM–CT in 10% PIP2/90% DMPC nanodiscs on streptavidin beads; reporter 50 nM 647–KIND2, unlabelled competitor titrated; 20 mM Tris pH 7.5, 200 mM NaCl, room temperature; IC50 of individual experiments; charged lipids contribute to the binding
[4] = target: β1-TM–CT Y795A (KIND2-binding impaired) in nanodiscs (UniProt P09055); assay: flow cytometry-based reporter-displacement assay (FC-RDA) on beads; biotinylated TM–CT in 10% PIP2/90% DMPC nanodiscs on streptavidin beads; reporter 100 nM 565–THD1, unlabelled competitor titrated; 20 mM Tris pH 7.5, 200 mM NaCl, room temperature; IC50 of individual experiments; charged lipids contribute to the binding
[5] = target: β1-TM–CT Y783A (THD1-binding impaired) in nanodiscs (UniProt P09055); assay: flow cytometry-based reporter-displacement assay (FC-RDA) on beads; biotinylated TM–CT in 10% PIP3/90% DMPC nanodiscs on streptavidin beads; reporter 100 nM 565–THD1, unlabelled competitor titrated; 20 mM Tris pH 7.5, 200 mM NaCl, room temperature; IC50 of individual experiments; charged lipids contribute to the binding
[6] = target: β1-TM–CT Y783A (THD1-binding impaired) in nanodiscs (UniProt P09055); assay: flow cytometry-based reporter-displacement assay (FC-RDA) on beads; biotinylated TM–CT in 10% PIP2/90% DMPC nanodiscs on streptavidin beads; reporter 50 nM 647–KIND2, unlabelled competitor titrated; 20 mM Tris pH 7.5, 200 mM NaCl, room temperature; IC50 of individual experiments; charged lipids contribute to the binding
[7] = target: β1-TM–CT Y783A (THD1-binding impaired) in nanodiscs (UniProt P09055); assay: flow cytometry-based reporter-displacement assay (FC-RDA) on beads; biotinylated TM–CT in 10% PIP2/90% DMPC nanodiscs on streptavidin beads; reporter 100 nM 565–THD1, unlabelled competitor titrated; 20 mM Tris pH 7.5, 200 mM NaCl, room temperature; IC50 of individual experiments; charged lipids contribute to the binding

B1: talin-1 head domain (THD1) (domain or fragment, UniProt P26039 1-405, looked up)
chain: MVALSLKISIGNVVKTMQFEPSTMVYDACRMIRERIPEALAGPPNDFGLFLSDDDPKKGIWLEAGKALDYYMLRNGDTMEYRKKQRPLKIRMLDGTVKTIMVDDSKTVTDMLMTICARIGITNHDEYSLVRELMEEKKDEGTGTLRKDKTLLRDEKKMEKLKQKLHTDDELNWLDHGRTLREQGVEEHETLLLRRKFFYSDQNVDSRDPVQLNLLYVQARDDILNGSHPVSFDKACEFAGFQCQIQFGPHNEQKHKAGFLDLKDFLPKEYVKQKGERKIFQAHKNCGQMSEIEAKVRYVKLARSLKTYGVSFFLVKEKMKGKNKLVPRLLGITKECVMRVDEKTKEVIQEWSLTNIKRWAASPKSFTLDFGDYQDGYYSVQTTEGEQIAQLIAGYIDIILKKKKS
notes: talin-1 (TLN1) head domain (THD), residues 1-405; murine TLN1 cDNA is named only for the cell lines; also called WT; source: E. coli (DE3) Rosetta 2, purified (IMAC, SEC); not shown: His10-SUMO, N-terminal, cleaved
IC50 [1]: 360, 466, 284, 197 nM [lines of one column]
IC50 [2]: 85, 126, 186, 114, 125 nM [lines of one column]
IC50 [3]: 115, 68, 179, 29 nM [lines of one column]
IC50 [4]: 68, 52, 26, 37 nM [lines of one column]

B2: kindlin-2 (KIND2) (natural protein)
chain: MALDGIRMPDGCYADGTWELSVHVTDLNRDVTLRVTGEVHIGGVMLKLVEKLDVKKDWSDHALWWEKKRTWLLKTHWTLDKCGIQADAKLQFTPQHKLLRLQLPNMKYVKVKVNFSDRVFKAVSDICKTFNIRHPEELSLLKKPRDPTKKKKKKLDDQSEDEALELEGPLIMPGSGSIYSSPGLYSKTMTPTYDAHDGSPLSPTSAWFGDSALSEGNPGILAVSQPVTSPEILAKMFKPQALLDKAKTNQGWLDSSRSLMEQDVKENEALLLRFKYYSFFDLNPKYDAIRINQLYEQAKWALLLEEIECTEEEMMMFAALQYHINKLSIMTSENHLNNSDKEVDEVDAALSDLEITLEGGKTSTILGDITSIPELADYIKVFKPKKLTLKGYKQYWCTFKDTSISCYKSREESSGTPAHQLNLRGCEVTPDVNISGQKFNIKLLIPVAEGMNEIWLRCDNEKQYAHWMAACRLASKGKTMADSSYNLEVQNILSFLKMQHLNPDPQLIPDQITTDVNPECLVSPRYLKKYKSKQITARILEAHQNVAQMSLIEAKMRFIQAWQSLPEFGITHFIARFQGGKREELIGIAYNRLIRMDASTGDAIKTWRFSNMKQWNVNWEIKMVTVEFADEVRLSFICTEVDCKVVHEFIGGYIFLSTRAKDQNESLDEEMFYKLTSGWV
IC50 [5]: 151 nM, 267 nM, 102 nM, 1.21 µM [lines of one column]
IC50 [6]: 204, 196, 93, 48 nM [lines of one column]
IC50 [7]: 2.72 µM, 351 nM, 188 nM, 121 nM [lines of one column]
